The text below walks through data of PubChem BioAssay AID1240 (Sanford-Burnham Center for Chemical Genomics, 2008).

About 800 (1.6%) of roughly 50,000 compounds showed an effect of 50% or more. The list shows a part of the results.

The target of the experiment is Bcl-2-like protein 10 (Homo sapiens) (UniProt Q9HD36). Put plainly: Phenotype converters, Bcl-B/TR3 peptide binding displacement, primary biochemical FP (AID 1240).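 Further: 0% = Bcl-B with tracer peptide and DMSO and 100% = tracer peptide lacking Bcl-B.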 To be noted: GST-Bcl-B / FITC-TR3 peptide fluorescence polarization; stronger effect = higher value; compound at 3.75 mg/L.
Sequence of UniProt Q9HD36 (Q9HD36 whole entry, looked up): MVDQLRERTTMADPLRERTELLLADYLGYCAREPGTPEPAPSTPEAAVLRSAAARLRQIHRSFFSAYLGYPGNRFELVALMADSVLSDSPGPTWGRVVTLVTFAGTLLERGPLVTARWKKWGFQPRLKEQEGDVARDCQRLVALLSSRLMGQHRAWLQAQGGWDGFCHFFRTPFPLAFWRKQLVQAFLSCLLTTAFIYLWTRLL
For `O=C(NNC(=O)c1cc2ccccc2oc1=O)c1ccccc1`, the displacement came out at 1.8%. Then `O=c1oc(-c2cccnc2)nc2ccccc12`, with 7.2%; and `CCOc1ccc(NC(=O)c2c(NC(C)=O)sc3c2CCCC3)cc1`, with 12.1%.

For the compound `CCOc1ccccc1C(=O)Nc1ccc(F)c(Cl)c1`, the displacement was 8.1%.

Take `CCCCOc1ccc(C(=O)NN)cc1`: the displacement was -5.4%. Then `CC(C)CC(NC(=O)c1ccccc1)C(=O)OCC(=O)N1c2ccccc2Sc2ccccc21` (stereo not drawn), with 9.1%; and `CCN(CC)c1ccc(/C=C2\C(=O)NC(=O)N(Cc3ccccc3)C2=O)c(OC)c1`, with 14.6%; and `Cc1ccc(-n2nc(C)c3c(C)cc(=O)oc32)cc1Cl`, with 35.1%. Regarding `COc1cc(NC(=O)c2ccc(-c3cccc(Cl)c3)o2)ccc1NC(=O)c1ccco1`, the displacement is 15%.

Take `CCc1ccc(S(=O)(=O)N2CCN(C)CC2)cc1`: the displacement stood at 7.1%. In the case of `COc1cc(C=C2C(=O)N(C)C(=O)N(C)C2=O)ccc1OC(C)c1ccccc1` (stereo not drawn) it was 120%. Then `CC1=C(C)CC2C(=O)N(c3ccc([N+](=O)[O-])cc3)C(=O)C2C1` (stereo not drawn), with -4.8%. Then `COc1ccc(C2C(C(=O)OC(C)C)=C(C)N=c3s/c(=C\c4ccc(Br)o4)c(=O)n32)cc1` (stereo not drawn), with 5.3%. On to `O=C(NCC1CCN(C(=O)c2c(F)c(F)c(F)c(F)c2F)CC1)c1c(F)c(F)c(F)c(F)c1F`, for which the displacement was -0.8%. In the case of `CC1=C(C(=O)Nc2cccc(C)c2)C(c2ccc(Br)cc2)NC(=O)N1` (stereo not drawn) it was 11.8%; in that of `Cc1ccc(C(=O)Nc2ccccc2)cc1`, -0.6%. In the case of `O=C1c2ccc(-c3nc4ccccc4c(=O)o3)cc2C(=O)N1c1ccc(I)cc1` it was -7.1%; in that of `O=C(O)C1CCCCC1C(=O)N1CCN(c2ccc(Cl)cc2)CC1` (stereo not drawn), 4.5%; in that of `COc1ccc(NC(=O)c2c(N)sc(-c3ccccc3)c2C)cc1`, -3.6%. For the compound `COc1ccc(OC)c(S(=O)(=O)N2CCC(Cc3ccccc3)CC2)c1`, the displacement is 14.9%. Consider `Cc1c(Cl)cccc1N1C(=O)C2C3C=CC(C3=C3CCCCC3)C2C1=O` (stereo not drawn), for which the displacement is -3.3%.

For the compound `O=C(c1cccc2c(Br)cccc12)N1CCN(c2ccc([N+](=O)[O-])cc2)CC1`, the displacement was 12.9%. In the case of `CC(C)C(=O)NS(=O)(=O)c1ccc(N)cc1` it was 13.6%; in that of `CCOC(=O)c1c(C)oc2ccc(OCc3ccccc3)cc12`, 8%; in that of `CCCCCCOc1ccc(N2C(=O)CC(N3CCN(Cc4ccccc4)CC3)C2=O)cc1` (stereo not drawn), 10%. Then `COc1cc(OC)c(OC)cc1CN1CCN(C(=O)c2ccccc2F)CC1`, with -0.9%. In the case of `COc1cccc(NC(=O)CN(c2ccccc2)S(=O)(=O)c2ccccc2[N+](=O)[O-])c1` it was 18.5%; in that of `COc1ccc(C2Nc3ccccc3NC3=C2C(=O)CC(C)(C)C3)cc1` (stereo not drawn), 1%; in that of `Cc1ccc(C(=O)Nc2ccc(OC(F)(F)F)cc2)cc1`, 36.3%. For the compound `CCC(=O)c1ccc(Br)cc1[N+](=O)[O-]`, the displacement was -10.2%. In the case of `CC(=O)C(/C=N/c1ncc(C(F)(F)F)cc1Cl)=C(\C)O` it was -1.7%; in that of `O=C(Nc1ccc2c(c1)oc1ccccc12)c1cccc2ccccc12`, 2.3%.

`CC1(C)Cc2ccccc2/C(=C/C(=O)c2ccccc2[N+](=O)[O-])N1`: the displacement was found to be 11.8%. As to `COc1ccc(NC(=O)CN(c2ccccc2)S(=O)(=O)c2ccccc2[N+](=O)[O-])c(OC)c1`, the displacement is 3.3%. Then `Cc1occc1C(=O)O/N=C(\N)c1ccccc1`, with 14.5%; and `CS(=O)(=O)N(CC(=O)Nc1cccc(Cl)c1)c1cccc(C(F)(F)F)c1`, with 6%. In the case of `Cc1cccc(N2C(=O)CSC2=O)c1` it was -0.8%; in that of `Cc1cccc(CC2SC(=Nc3ccccc3)NC2=O)c1` (stereo not drawn), 1.4%.

In the case of `O=C(CSc1nnc(CCCN2C(=O)c3cccc4cccc(c34)C2=O)n1-c1ccccc1)NCCCN1CCOCC1`, the displacement was -7%. In the case of `CS(=O)(=O)N(CC(=O)NC1CCCCC1)c1ccc(Oc2ccccc2)cc1` it was 5.8%; in that of `O=S(=O)(NCC(c1ccccc1)N1CCNCC1)c1ccc(Cl)cc1` (stereo not drawn), 12.2%. As for `Cc1ccc(S(=O)(=O)Nc2nc(O)c(C3=c4cc(Cl)ccc4=NC3=O)s2)cc1`, the displacement was 12.1%.

Consider `CN1C(=O)/C(=C/c2ccc(C(=O)O)cc2)SC1=S`, for which the displacement stood at 10.4%.

Turning to `CCc1ccc(-n2c(C)cc(/C=N/n3cnnc3)c2C)cc1`, the displacement was -2.3%. In the case of `CCOC(=O)c1c(NC(=O)C23CC4CC(CC(C4)C2)C3)sc(C(=O)Nc2ccccc2OC)c1C` it was 16.1%; in that of `O=C(Nc1ccc(Cl)c(Cl)c1)c1nn2c(c1Br)NC(c1cccs1)CC2C(F)(F)F` (stereo not drawn), 2.8%; in that of `O=C1C2C3C=CC(C4CC34)C2C(=O)N1c1ccc(F)cc1` (stereo not drawn), 2.2%. Then `O=C1N=C(N2CCOCC2)S/C1=C/c1ccc(Cl)cc1Cl`, with 4.8%; and `CC1=C(C(=O)Nc2ccccc2Cl)C(c2ccc([N+](=O)[O-])cc2)NC(=O)N1` (stereo not drawn), with -10.5%. Regarding `COc1ccc(OC(C)C(=O)NCCc2nc3ccccc3[nH]2)cc1` (stereo not drawn), the displacement was 1.4%. Then `COC(=O)C1=NN(C(=O)c2ccc(Br)cc2)C(O)(C(C)(C)C)C1` (stereo not drawn), with 16.2%; and `O=C1OC(c2ccc(Cl)cc2)=C/C1=C\c1ccco1`, with 9.7%. In the case of `Cc1ccc(C(=O)Nc2cc(C(F)(F)F)cc(C(F)(F)F)c2)cc1` it was -4.7%; in that of `O=C1NC(=S)N(c2ccccc2)C(=O)/C1=C/c1cccn1-c1ccccc1`, 31.2%; in that of `CC1CCOP(=O)(C(Nc2ccc(C(C)C)cc2)c2ccc([N+](=O)[O-])cc2)O1` (stereo not drawn), -1.6%. For the compound `O=S(=O)(c1cccs1)N1CCc2ccccc2C1`, the displacement was found to be 9.9%.

Take `CCOC(=O)C/C(C)=N\NS(=O)(=O)c1ccc(Oc2ccc([N+](=O)[O-])cc2)cc1`: the displacement is -8.5%. In the case of `COc1ccc(OC)c(NC(=O)COc2ccc(Cl)c(C)c2)c1` it was -2.9%; in that of `Cc1ccc2nc(-c3ccc(OC(=O)c4ccccc4F)cc3)sc2c1`, 76.4%; in that of `CCCn1c(NCCO)nc2ccccc21`, 0.7%. In the case of `NC1=NC2(CCCC2)N=C(Nc2ccc(Cl)cc2)N1`, the displacement was -7.8%. For the compound `COc1ccc(-n2cnc(N)c2C(=O)c2cccc([N+](=O)[O-])c2)cc1`, the displacement is 14.8%.

Regarding `O=C(NCc1ccc2c(c1)OCO2)C(=O)Nc1nc(C23CC4CC(CC(C4)C2)C3)cs1`, the displacement is -15.1%.

Take `Cc1cccc(C)c1OCC(=O)Nc1cc(C(=O)O)cc(C(=O)O)c1`: the displacement is -9.1%.

As to `Brc1cccc(-c2nnc(-c3ccccc3)o2)c1`, the displacement worked out at 3.6%. Then `CCCn1c(C(O)(c2ccccc2)c2ccccc2)nc2ccccc21`, with 10.4%. Then `COc1ccc(C2SCC(=O)N2c2c(C)n(C)n(-c3ccccc3)c2=O)cc1` (stereo not drawn), with -6.2%; and `COc1ccc(/C=C(\NC(=O)c2ccc([N+](=O)[O-])cc2)C(=O)NCCCn2ccnc2)cc1`, with 8.3%.
